T1: UNK ZnF1-3 (human, UniProt Q9C0B0 31-174)
T1 sequence: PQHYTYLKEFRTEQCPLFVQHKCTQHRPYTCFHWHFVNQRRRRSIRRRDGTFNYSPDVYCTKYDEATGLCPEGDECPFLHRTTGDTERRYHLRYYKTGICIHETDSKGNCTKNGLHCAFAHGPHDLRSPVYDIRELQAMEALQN

B1: chr18:52893488:52893489:-_ENSG00000196628_ENST00000354452|hu_hu|hu_hu_hu_mus_True|1_18 (ssRNA)
RNA: GGGAGUUCUACAGUCCGACGAUCUAUUUAGACCAUUUCCGCGGAGUUAUGGCAUUUACUCAGUGCUGAUAGGUGGAAAAACUACUUCAACAGGGAUUUUUUUUUUCCUUAAUACAUGCCAAGAAUUUGUGGCUGUCAAAAAUACAACAGAGGAUUGAGCAUCA
B2: chr2:216981417:216981418:+_ENSG00000079246_ENST00000392132|hu_hu|hu_hu_hu_mus_True|18_88 (ssRNA)
RNA: GGGAGUUCUACAGUCCGACGAUCCUGAUACUGGUCCUUGCCAGCAAGGGGAUUGUCAGUGCCAUCUGUGCCAUAGAGGACUAACGCAAUCUCAUCUUUGCUCUCCGAAAAUACCUGUCGCUGUACAAACAUAGUCAUCACUUUCAACAGAGGAUUGAGCAUCA
B3: chr11:105132459:105132460:+_ENSMUSG00000020694_ENSMUST00000015107|mus_hu|FALSE|FALSE (ssRNA)
RNA: GGGAGUUCUACAGUCCGACGAUCGAUCUUCGAAAGACCAAAAUCUGUAAUUUUUAUCUCUCCACACGCUGUACCAUUUACUAAAAGAAUAUUACCUGGUUUGAGGUCAUAGUGUAUGAUGGGAGGUUUUAUUUCAUUUAAGUACAACAGAGGAUUGAGCAUCA
B4: 75306597_75306959_2307_CDS_ENSMUSG00000020850_ENSMUST00000018449|mouse|control|control (ssRNA)
RNA: GGGAGUUCUACAGUCCGACGAUCCAUCAUGUCCAGAAUGUCGUGCAUCACAGCAGCCCUGAGCUCCAGGUCAAAGUGCGACUCCACCCGCUGCUUCGUUACUGUCUUUGCCACCCCCUUUGAGUGACGGCCUUCAAACUGUCGCAACAGAGGAUUGAGCAUCA
B5: chr6:40197388:40197389:+_ENSMUSG00000057716_ENSMUST00000061740|mus_mus|mus_mus_mus_hu_False|28_98 (ssRNA)
RNA: GGGAGUUCUACAGUCCGACGAUCGAGACACUGGGGUGGAUGGCACCCACCUCUGUUUGGGUGCUAGCCACUAAGACUGUUAUUUUGGGAUUCAUGGCCUUGAAUAUCAAGAGGAAAAGGAAGAGGAUGGAAAGAGUCAAGAGUCAACAGAGGAUUGAGCAUCA
B6: 28422993_28423113_5004_3pUTR_ENSG00000104290_ENST00000240093|human|control|control (ssRNA)
RNA: GGGAGUUCUACAGUCCGACGAUCCAUAGUGAUGUUCACUUAACUGUCUAUACUUGGCCCACUUGUAAAAGAAAACCAAUUAACAUUUUGGCAGUUGAUAAUAUAAUGCAGAUGGCAAUGGAUGACAACAUCUUCGAGCCCAAACAACAGAGGAUUGAGCAUCA
B7: chr5:44142225:44142226:-_ENSMUSG00000039753_ENSMUST00000047857|mus_hu|FALSE|FALSE (ssRNA)
RNA: GGGAGUUCUACAGUCCGACGAUCGCCUGCACCAGUUAUAGUAAGACAACCAGAGAGAUUAAGGUGCUCCAAAUAAGGCAGCCCUCCUCCCAGAGUCAAAACCCUGAGACCAUGGUCUGUGAUCUGAUAACAUCCAGAUAAACUCAACAGAGGAUUGAGCAUCA
B8: chr7:44244176:44244177:+_ENSG00000106636_ENST00000223369|hu_mus|hu_hu_hu_mus_False|88_108 (ssRNA)
RNA: GGGAGUUCUACAGUCCGACGAUCACUAUCAUUCCGGACGUAGACAUGGCACAGAUACUCUUGUUCUUUGACAGAAGCUCUGCUGCCUUUCCCCGAGCGUUCCACAAUCAGUUGACUUGUAAAGGUCAUGAAUUCCUGCACACUCAACAGAGGAUUGAGCAUCA
B9: chr17:62495851:62495852:-_ENSG00000108654_ENST00000581693|hu_mus|motif|central (ssRNA)
RNA: GGGAGUUCUACAGUCCGACGAUCUCACUGUACAGUUACUUUUGUGAAAACACUGCCUGCAUUUUCUAGUACAAAAAAAACCGGAAAAUUGUUUCAGGAAUGUAGAGAAAUAUCCAACUUAAAUAGCGAAAAAAGUGCACCAUACAACAGAGGAUUGAGCAUCA
B10: chr3:41266445:41266446:+_ENSG00000168036_ENST00000349496|perfect_dup|motif|central (ssRNA)
RNA: GGGAGUUCUACAGUCCGACGAUCCAUGGCAGCUCGGACCCUCUGAGCCCUAGUCAUUGCAUACUGCCCGUCAAUAUCAGCGGCUUGCUCUUGCGUGAAGGACUGGGAAAAGCCUUGCUCCCAUUCAUAAAGGACUUGGGAGGUCAACAGAGGAUUGAGCAUCA
B11: chr2:163839756:163839757:+_ENSMUSG00000018326_ENSMUST00000018470|mus_mus|FALSE|FALSE (ssRNA)
RNA: GGGAGUUCUACAGUCCGACGAUCUUUCAUUUUUAAGUAGAACACUUUGCUUUCUGCCUGGGUGGCAUUGAGAAUGAGAUAUUUGUCCAACAGCUCCAGCACAUCGUUGCAGAUGUCCUGCAGCUCCGCCUCGAUCUUCUCACGCAACAGAGGAUUGAGCAUCA
B12: chr12:493273:493274:-_ENSG00000073614_ENST00000399788|hu_hu|FALSE|FALSE (ssRNA)
RNA: GGGAGUUCUACAGUCCGACGAUCUUUUCUCUCUACCACAGGGAUCUUCAGAGUAGAUCCUUGAAGUUCCCAAAAUUUUGCUAGUUGAUCCAAGAAAUCCAAUCUCACUCUGGUCAUUGCCUCAAGUUCAUUCAGGCGCUGGACCAACAGAGGAUUGAGCAUCA
B13: 110765465_110765585_907_CDS_ENSG00000174437_ENST00000539276|human|control|control (ssRNA)
RNA: GGGAGUUCUACAGUCCGACGAUCCCCUCCAUGAACCGGGUCAUUGAAGUGCCCAAUAUUUAUGAUCCAGACUGCAAUGCAAAUAAGGGAGAUGACUUUGGAAAGCUGUUCCCCAAAUUCAUCUAGUUUUUGCUGAAGGGGUGUCAACAGAGGAUUGAGCAUCA
B14: chr4:99801976:99801977:-_ENSG00000151247_ENST00000280892|hu_mus|FALSE|FALSE (ssRNA)
RNA: GGGAGUUCUACAGUCCGACGAUCCACAUCUGCGGGUUCUGGGGUGACGUAUACUGUAAUUCUUUGAUUGGGAUAGUGGACACACUAGCAAAAAUUGGGGGUGGGGGAGGAGAAUGAACACAGAAGUACAAGACAAAGGCGAAUCAACAGAGGAUUGAGCAUCA

The list shows a part of the results.

The target in this assay is T1, UNK ZnF1-3. Put plainly: nsRBNS (natural sequence RNA bind-n-seq); RBNS binding buffer (assumed for nsRBNS): 25 mM Tris pH 7.5, 150 mM KCl, 3 mM MgCl2, 0.01% Triton X-100, 500 ug/ml BSA, 20 U/ml SUPERase-In, 4 C; UNK is unkempt and MSI1 is Musashi-1; names of the RNAs are library labels; protein concentration not given here; high values mean tight binding.
The molecule B1 displayed a binding signal of 1.04 enrichment R.

Take B2: the binding signal stood at 1.37 enrichment R. B3 returned a binding signal of 1.09 enrichment R. B4: the binding signal was found to be 1.16 enrichment R. Consider B5, for which the binding signal was 1.44 enrichment R.

On to B6, for which the binding signal stood at 1.45 enrichment R. For the molecule B7, the binding signal is 0.866 enrichment R. Next, B8: 0.556 enrichment R; B9: 0.963 enrichment R. Next, B10: 0.485 enrichment R.

B11 displayed a binding signal of 0.644 enrichment R. With B12, the binding signal is 0.887 enrichment R. Next, B13: 0.981 enrichment R; B14: 2.06 enrichment R.
